# Reference: the supplement of paper PMC11417369
# The other results are listed elsewhere or left out.
# Test system: PfAP2-HC AP2 domain (GST-tagged)
# Assay: gcPBM binding intensity (ln(normalized median fluorescence intensity)); higher = stronger DNA binding
# How it was run: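 In this array assay, P. falciparum DNA-binding domains with a GST tag, expressed in E. coli, were applied for 1 h to primer-extended double-stranded 36-bp intergenic genomic probes and negative controls on an Agilent 4 × 180k array. Bound protein was visualised with Alexa488 anti-GST antibody at 488 nm. Binding intensity is the highest Masliner-normalised natural-log median intensity across replicate spots of either probe orientation.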
row,Sequence,gcPBM binding intensity (ln)
1,ACATAGATGCATATCACACATAATAATATTGTCGTA [CACACA_site4819],9.85
2,TAAAGCGACATTTGGAAAATATATATCCTAGCATTT [CACACA_negctrl_site327],9.56
3,TATTCGTGCAATAGTAGTACACTTAAAAATTATTCA [XGTACX_site269],9.57
4,AAAATACACAGACACACACACATATAAATAAATATT [CACACA_site7871],10.8
5,ATTCGTTATAAAATATGTACATAAATATATATATAT [XGTACX_site2819],9.7
6,GTAGACTGAAACCACACACACATATATATATATATT [CACACA_site605],10.2
7,TAATATTTCGCACTGTGTACTGAAATATTTATATCG [XGTACX_site516],9.58
8,ATAATAAGACGATAAGGTACACAAAATGTTAATATA [XGTACX_site6984],9.85
9,TATTCAAATTTCCACATACACACCTTGTAGATATAT [CACACA_site281],9.76
10,AAGACAAATTTTACATGTACAAATATATTACATATA [XGTACX_site7060],9.61
11,AAGAAAAAAAGCAACACACGTACCAACACAATTATG [CACACA_site3133],10.4
12,AATAATAATAAAAATAAACACACATATATATGTATA [CACACA_site8928],9.85
13,AAAGAAAGAAAGAAAAGTACTTAAACTTTTAAAAAT [XGTACX_site8531],9.66
14,ATTTCTTTTGTTATAGTGCATAATATTTATGTACGT,9.65
15,ATATTAATATATAGAAGTACTCACATGTTAATATAA [XGTACX_site7323],9.66
16,TAACTATCATGTATTACACACAATATTTATTATATA [CACACA_site2701],9.85
17,TTAAATAAATAAATAACACACATATAAAAATAACGC [CACACA_site3266],9.95
18,CTATAATATTAGTGCACACACAAAAATGTACTAAAC [CACACA_site6442],10.3
19,AAGAAAAAAACAAAAAAAAAAAAAAAAATTCTTATT [TGCATGCA_negctrl_site504],9.3
20,ATTTTTTTCCACTAGTGTACAAATTTTACATTGTGT [XGTACX_site5023],9.97
21,ACTAATGTAAAAGTTTGTACATATATTGAGAATTAT [XGTACX_site7439],9.66
22,ATAAAATAAAAGGAATGTACTTTTTTTATTGTAATT [XGTACX_site4372],9.55
23,AACAAATTGAAACAATAATTGGAAAAAAAAAAAAAA [CACACA_negctrl_site1145],9.3

row,Sequence,gcPBM binding intensity (ln)
1,AACAAATACGGACACACACACACACTAGAAAAAAAA [CACACA_site4442],11
2,TAAAAAAAAACAGAAACACACATTATTCATATAGAT [CACACA_site7052],9.94
3,AAAAGCACCGTTCGTTGTACACTGAAACACTTTTGT [XGTACX_site199],9.78
4,GTTATAAATTTTTTTTTTTTTTTTTTTTTTTTTTTT [CACACA_negctrl_site848],9.33
5,AAATGTATATATGTATGTACATATATATATATATAT [XGTACX_site5778],9.72
6,AGTTTCTATTTAGTGTGTACTTAAGAAAAATATCTC [XGTACX_site82],9.53
7,ATAAACTGAGTGGTTACACACAAAACCAATAATTTT [CACACA_site3478],9.87
8,ATATATATATATATATGTACTCATATTTTATTATTT [XGTACX_site898],9.65
9,TTTTCAATTTTTTATGAACACACAAAAAAAAAAAAA [CACACA_site8808],9.29
10,TCGCAAATAAATTAATGTACACATATATATATATAT [XGTACX_site5145],9.76
11,TATTATAATGACTATAGTACATAATATTATTTATAT [XGTACX_site1977],9.59
12,ATAGAACTGAATAAATCTATAAATAAATATATATAT [GTGCAC_negctrl_site604],9.56
13,CTCCACAAACAAATCGCACACCCAACCCAACATATA [CACACA_site2650],9.98
14,AATAAATATAAATACACACCCATATATATATATATA [CACACA_site5436],9.67
15,TTAAAAAAAAAAAAAAGTACACACTTATAAAATATT [XGTACX_site1630],9.68
16,ACCAATAAATATTTGGTGCATACATATATATATATA,9.49
17,TCATACCTACATAAAAAAAGGGAAACAAAATGTCAT [XGTACX_negctrl_site34],9.56
18,CTAAATAAAGTTAACACACACATAATATTTATATGT [CACACA_site6368],10.3
19,TACATAAACATTTATACACACATTAGATATACATAT [CACACA_site6329],9.85
20,TCAAAGAGTAGAAAGGTGCTTATGAACGAGATAATT,9.77
21,AAAGTTACATTCGACACACACATAACAACTAAATAA [CACACA_site3419],10.1
22,TTTTACATATATATATGTACGAAAATGAAAAGGTCA [XGTACX_site5576],9.59
23,TATTATAATTTTATATGTACACATATATAAATATAT [XGTACX_site4054],9.63

row,Sequence,gcPBM binding intensity (ln)
1,TTTATTTATTAATACACACACACACCCCCACAAAAT [CACACA_site240],11.4
2,ACAAGAACAGAACGTACACACACATATATATATATA [CACACA_site9143],10.4
3,ACCTACACAAGCATTAAACACACAAAAGGGATACTT [CACACA_site8273],9.92
4,ACCTAATTTTTATATTGTACATAATATAATATATAT [XGTACX_site1715],9.82
5,AACTAAATTTATAATTGTACATTAAAATATGTATTA [XGTACX_site479],9.51
6,AAATATTACATACACGCACACATTAATATATTTAAA [CACACA_site2603],10.1
7,TTTTTTAAAACTTCAAAAAGAGCACTTGAATTTTTT [GTGCAC_negctrl_site455],9.2
8,ACATATACATTTATATGTACTCATTTATCTTATGTA [XGTACX_site6594],9.83
9,ATTCATTTTAATATGGGTACATAAAAATAAAAAGAA [XGTACX_site2801],9.68
10,TAATATGAAAAGTGTACACACGCACAGACAAAAAAA [CACACA_site5594],10.1
11,GCATAAATCAGACACACACACATATATAAATATGTA [CACACA_site7187],10.6
12,AATATTTAATTCAACACACATACATATTTATTAAAA [CACACA_site2342],9.99
13,TACATTTTTATTTTTACACACATATTTATTTATATA [CACACA_site6609],9.99
14,TATGATGATGAATAACGTACAAAAAAATTAATCACC [XGTACX_site6794],9.78
15,ATAAATATATGGTTTCATTATATTAAATTCAATTTA [CACACA_negctrl_site213],9.38
16,TGTTTATTTTTTTTATGTACTTATTTTTTATTGCAT [XGTACX_site719],9.9
17,GATTTTCATATTTTTTGTACTTACATTTTTCTATAC [XGTACX_site6002],9.99
18,ATAAAATCTTAATCAACAAACAAACAAAAAAAAAAT [CACACA_negctrl_site1161],9.67
19,TATGTGATATATTTATCACACATTATATATATATAT [CACACA_site5103],9.66
20,AATAAATAAATAAGTACACACATATATATATATATA [CACACA_site284],9.7
21,TAATTATCACATTGCACACACATTTCCTTTTACATT [CACACA_site3443],10.3
22,GGCATACACAGACACACACACACACCCACATATATA [CACACA_site591],11.2
23,AAAAGAATGAAACATAATAAATTACATTAAAATAAT [CACACA_negctrl_site897],9.66

row,Sequence,gcPBM binding intensity (ln)
1,AACTTATTAAGCCCTCCACATTTCTCTACTACAACT [CACACA_negctrl_site1552],10
2,TCTATTTTTCTAATTTGTACATAGCTTTGAGTTAGT [XGTACX_site8977],9.6
3,AGATAAAATATATACACACACATAAATACGTACAAA [CACACA_site1086],10.3
4,AACTTCTTTTTTATAACACACAAAATATATATACAA [CACACA_site282],9.72
5,TTTTTTTTTTGTAATTGTACTTTTTTAATACTTCTA [XGTACX_site4195],9.58
6,TATACATATATATACACACACATATATATATATATA [CACACA_site4],9.87
7,TATATATATATATTCACACATAAATATATGCACCCA [CACACA_site4263],9.63
8,ATTTTTGTGACTAAGACATGCATAAGAGTAAAGAAA [TGCATGCA_site619],9.6
9,ACATATATTATATAACGTACATAACACTATTTCCTT [XGTACX_site6938],9.83
10,AATCATTTATGGAAAGCATGCTAAATTAGAGTATAC [TGCATGCA_site172],9.65
11,TAATATCATTTAGACACACACTCTTACAATCTGTAA [CACACA_site2590],9.81
12,ATCTAAACCTTTTGAGCACACATATATATATATATA [CACACA_site8526],9.78
13,ATGGGGAATAATGAATGTACACAAATAAAAAGTTGG [XGTACX_site4015],9.69
14,TAAAAATAAAAATAACGTACATACATACTTATATAT [XGTACX_site3745],9.53
15,TAATTTTTTTAAAACACACAAATATGTAAATATGTA [CACACA_site7769],9.51
16,TAAGTCGCCAAAAGGTGTACACATAATGCATTATCA [XGTACX_site8852],9.87
17,AGTATAGTTATAAATTGTACATATTATTTATTTTAT [XGTACX_site949],9.69
18,GGGAATTATGAAAAAAGTACAGAACAAAAGTAAAAG [XGTACX_site2861],9.83
19,ATATAGTAAAATTATACACACATGAATTTTCCCATG [CACACA_site1770],9.9
20,TACAAAAATGAAAAAAGTACATATCATTTAATATAA [XGTACX_site8066],9.7
